About 340 (0.77%) of roughly 44,000 compounds were called active. Another 5% or so got no clear call; they are omitted. The call rests on the fitted dose curve; in most records, active means well fitted inhibition curve with a large enough effect; inconclusive means small, poorly fitted or top-dose-only effect; inactive means flat fitted curve, though single readings scatter. This is one part of the list.
Test: Acumen qHTS Assay for Inhibitors of the mTORC1 Signaling Pathway in MEF (Tsc2-/-, p53-/-) Cells: Sytravon;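 further: plate controls were DMSO for no effect and rapamycin for full effect; nearly all actives have a fitted effect of over 50% in size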
Conditions: phospho-rpS6 immunofluorescence/PI, 24 h; series mostly up to 38.3 µM; activity change, negative = inhibition: at the top concentration
Summary of the method: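 Read-out: phospho-S6 Alexa-488 intensity over PI intensity per well, scored as % active cells using thresholds from rapamycin (7.5 nM) and DMSO controls. Tsc2-/-, p53-/- MEFs exposed to compound for 24 h; PI cell count recorded as viability.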

Activity change, negative = inhibition, inactive:
Cc1cc(C)c(NC(=O)CCCN2C(=O)COc3ccc(C)cc32)c(C)c1 -3.78%
COc1ccc(CCNC(=O)CN(c2cc(C(F)(F)F)ccc2Cl)S(C)(=O)=O)cc1 12.2%
Cc1ccc(OCC(=O)Nc2ccccc2C(=O)OCc2cc(=O)n3ccsc3n2)cc1C 0%
O=C(Cn1ccc2cc(S(=O)(=O)N3CCCCC3)ccc21)NCCc1ccc(Cl)cc1 -7.44%
O=C(O)Cc1sc(Nc2ccccc2Cl)nc1-c1ccccc1 -1.18%
CCOC(=O)c1c(NC(=O)Cc2coc3cc(C)ccc23)sc2c1CCCC2 2.19%
CCc1ccc(NC(=O)c2cc3nc(-c4ccc(C)cc4)cc(C(F)(F)F)n3n2)cc1 -4.17%
COC(=O)c1sc(NC(=O)c2cc3nc(-c4ccc(Br)cc4)cc(C(F)(F)F)n3n2)c(C(=O)OC)c1C -0.0379%
CCOC(=O)c1cc(S(=O)(=O)N2CCN(c3cc(C)ccc3C)CC2)[nH]n1 -3.29%
COc1ccccc1Nc1nn2c(=O)c3ccc(C(=O)N4CCCCC4)cc3nc2s1 -1.09%
Cc1cccc(C)c1N1CC(c2nc3ccccc3n2CC(=O)OC(C)C)CC1=O (stereo unspecified) -4.44%
COc1ccc(NC(=O)CSc2nc3cc(OC)c(OC)cc3c3nc(-c4ccccc4)nn23)cc1Cl -8.03%
COC(=O)c1ccc(NC(=O)C(=O)NCCc2sc(-c3cccc(F)c3)nc2C)cc1 -0.582%
COc1cc(-c2ccno2)ccc1S(=O)(=O)N1CCN(c2ccccc2F)CC1 2.32%
COc1ccc(CC(=O)NCc2nc3cccnc3n2Cc2ccc(C)cc2)cc1 -6.95%
CCCN(CCC)C(=O)CSc1nc2ccccc2c(=O)n1Cc1ccco1 2.08%
CC1CCN(S(=O)(=O)c2cc3c4c(c2)CC(=O)N4CCC3)CC1 -7.68%
Fc1ccc(-c2cc(-c3ccccc3)c3c(n2)-c2cc(F)ccc2OC3)cc1 2.36%
Cc1ccc(-c2c(C)n3c4c(=O)n(C)c(=O)n(C)c4nc3n2-c2cccc(O)c2)cc1 -1.31%
COc1ccc(S(=O)(=O)NCC(c2ccco2)N2CCOCC2)cc1 (stereo unspecified) 0.41%
Cc1cc(C)cc(NC(=O)CSc2oc(-c3cccs3)nc2S(=O)(=O)c2ccccc2)c1 0%
Cn1c(=O)c2c(nc(NCc3ccccc3)n2Cc2ccccc2Cl)n(C)c1=O 7.46%
O=C(C1CC1)N1CCN(c2nc3ccc(F)cc3s2)CC1 0.358%
CN(C)S(=O)(=O)c1ccc2c(c1)nnn2CCNC(=O)Nc1ccc(Br)cc1 0%
CCCCOc1ccc(CNC(=O)c2cnc3sc(N4CCOCC4)nn3c2=O)cc1 7.37%
COc1cccc(OCc2nc3ccccc3n2CCOc2ccccc2C)c1 -11.4%
O=C(CCn1ccc2cc(S(=O)(=O)N3CCCC3)ccc21)NCc1cccc(Br)c1 -10%
Cc1ccc(C)c(Nc2nn3c(=O)c4ccc(C(=O)NC5CCCCC5)cc4nc3s2)c1 -2.32%
COc1ccc(CCNC(=O)CCCCn2c(=O)c3ccccc3n(Cc3ccc(F)cc3Cl)c2=O)cc1OC -6.91%
Cc1ccc(C(=O)NCC(c2cccnc2)N2CCc3ccccc32)cc1C (stereo unspecified) 5.68%
Cc1ccc(-c2nc3ncccc3o2)cc1NC(=O)c1cccc(OCC(C)C)c1 -7.22%
CCC1CN(C(=O)Nc2cc(C)cc(C)c2)c2ccccc2O1 (stereo unspecified) -17.7%
Cc1cc(NC(=O)c2cc(-c3ccc(Cl)cc3)on2)nn1Cc1ccc(Cl)cc1 -10.3%
CCc1ccc(NC(=O)Cn2c(=O)n(CCC(=O)NCc3ccc4c(c3)OCO4)c(=O)c3ccccc32)cc1 4.02%
Cc1c(C)n(Cc2ccccc2)c2ccc(C(=O)NCc3ccco3)cc12 -12.5%
Cc1c(-c2nsc(NC(=O)c3cccs3)n2)nnn1-c1ccc(Br)cc1 -12%
Cc1cccc(CN2CCc3nc(N4CCN(c5ccccn5)CC4)ncc3C2)c1 0%
COc1cccc(Cn2c(=O)n(-c3ccccc3C)c(=O)c3c2c2cc(C)ccc2n3C)c1 1.48%
COc1cccc(NC(=O)C2CCN(C(=O)N3CC(C)Oc4ccccc43)CC2)c1 (stereo unspecified) -10.2%
COc1ccc(Cl)cc1C(=O)Nc1ccc(-c2nnc3n2CCCCC3)cc1 -9.11%
O=C(NCc1ccccc1Cl)c1ccc2c(O)c(S(=O)(=O)c3ccccc3)c(=O)[nH]c2c1 1.39%
Cc1ccc(CNC(=O)CN2C(=O)C3CCCCN3c3ccc(C(=O)N4CCCC4)cc32)cc1 (stereo unspecified) -9.14%
CC(=O)c1ccc(NC(=O)CCc2c(C)nc3cc(-c4ccc(Cl)cc4)nn3c2C)cc1 -10.9%
Cc1ccc(C)c(NC(=O)CN(CCc2ccccc2)S(=O)(=O)c2ccccc2)c1 7.31%
Cc1cccc(Cc2c(C)nc3nc(SCc4ccccc4C)nn3c2C)c1 2.4%
CC(C)CCNC(=O)[C@@H](c1ccccc1)N1Cc2ccccc2C1=O 1.19%
CCOc1ccc(NC(=O)Cn2nnc(C(=O)Nc3ccc(OCC)cc3)c2N)cc1 -2.03%
CCc1nn(CC(=O)NC(C)c2ccccc2)c(=O)c2cc3sccc3n12 (stereo unspecified) 1.33%
CCOC(=O)C1=C(CS(=O)(=O)c2ccc(F)cc2)NC(=O)NC1c1ccc(OCC)c(OC)c1 (stereo unspecified) -16.6%
Cc1cc(C)cc(OCC(=O)NCC2(N(C)C)CCCCC2)c1 0%
Cc1ccc(C)c(N2CCN(c3cc(C)nc4c(-c5ccc(Cl)cc5)c(C)nn34)CC2)c1 -6.55%
CCCc1cc(=O)n2[nH]c(NCc3ccccc3OC)nc2n1 -1.6%
Cc1ccc(S(=O)(=O)N2CCC(c3ccncc3)CC2)c(C)c1 -6.69%
O=C(COc1ccccc1-c1nc(-c2ccccc2)no1)Nc1ccccc1[N+](=O)[O-] -13.1%
CC(=O)Nc1ccc(C2Nc3c(C)cc(C)cc3-c3cc(C)nn32)cc1 (stereo unspecified) -1.77%
COc1cc(OC)c(NS(=O)(=O)c2ccc3c(c2)NC(=O)CCS3)cc1Cl 5.84%
Cc1ccc(S(=O)(=O)NCCSc2nnnn2-c2ccc(Cl)c(C(=O)O)c2)cc1 -13.2%
CCOC(=O)c1c(C)oc2nc(C)nc(NCc3ccccc3OCC)c12 -3.13%
Cc1cc(C)cc(Nc2sc(C(=O)c3ccccc3)c(N)c2S(=O)(=O)c2ccccc2)c1 0.87%
CCOC(=O)c1ccc(NC(=O)C(Cc2ccccc2)NS(=O)(=O)c2ccc(Br)s2)cc1 (stereo unspecified) -4.27%
CCCc1nc2ccccc2n2c(-c3cccc(C)c3)c3c(=O)n(C)c(=O)n(C)c3c12 -0.23%

— PubChem BioAssay AID493208 (National Center for Advancing Translational Sciences (NCATS), 2011)
